Results on 38 compounds are retold here after the supplement of paper PMC10723795.

Structures can show the parent of a compound that is named as a salt. This is one part of the list.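 How the source made its calls: active = more than 2 SD below the DMSO mean: under 0.85 at 10 µM or 0.885 at 1 µM; inactive = the rest.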 Single values are uncertain, as repeats are few or missing.

The assay deals with RPE1. Nature of the assay: nucleolar normality score relative to DMSO (fraction of DMSO control); RPE1 is a non-cancer human cell line; higher = more normal nucleoli (less nucleolar stress). Particulars: 24 h.
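Further: fixed cells immunolabelled for nucleolin and UBF, 40 image fields per well in 384-well plates, per-cell score = nucleolin nucleolar/nucleoplasm intensity ratio divided by the matching UBF ratio.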

Turning to `NC(=O)Nc1sc(-c2ccc(F)cc2)cc1C(N)=O`, the nucleolar normality score runs as follows: (1 µM) inactive: 1.01; (10 µM) inactive: 0.861.

Turning to `C=C[C@H]1[C@H](O[C@@H]2O[C@H](CO)[C@@H](O)[C@H](O)[C@H]2O)OC=C2C(=O)OCC[C@]21O` [Swertiamarin], the nucleolar normality score was inactive: 1.06 (1 µM) and inactive: 0.945 (10 µM).

On to `Cc1nn(C)c(COc2ccc(N3CCN(S(=O)(=O)N(C)C)CC3)cc2)c1-c1cccc2c(CCCOc3cccc4ccccc34)c(C(=O)O)n(CCN3CCOCC3)c12`, for which the nucleolar normality score is, setting by setting: (1 µM) inactive: 1.05; (10 µM) inactive: 0.903.

For the compound `Cc1ccc(C(=O)N(CCCN)[C@@H](c2nc3cc(Cl)ccc3c(=O)n2Cc2ccccc2)C(C)C)cc1`, the nucleolar normality score by setting is: (1 µM) active: 0.774; (10 µM) inactive: 0.895.

For `O=c1cc(N2CCOCC2)oc2c(-c3ccc4c(c3)OCCO4)csc12`, the nucleolar normality score (1 µM) was inactive: 0.926 and the nucleolar normality score (10 µM) is inactive: 0.985.

In the case of `Nc1ncnc2c1c(I)cn2C1OC(CO)C(O)C1O` (stereo unspecified) [5-Iodotubercidin], the nucleolar normality score is, setting by setting: (1 µM) inactive: 0.993; (10 µM) inactive: 1.01.

With `COc1cc2ncnc(Nc3ccc(F)c(Cl)c3)c2cc1NC(=O)/C=C/CN1CCCCC1`, the nucleolar normality score is inactive: 1.06 (1 µM) and active: 0.813 (10 µM).

For the compound `CC(C)CCn1c(CN2CCN(C(=O)C3CC3)CC2)nc2c1c(=O)n(C)c(=O)n2C`, the nucleolar normality score reads like this: (1 µM) inactive: 0.99; (10 µM) inactive: 1.03.

As for `CC(C)(C)c1cc(NC(=O)Nc2ccc(Oc3ccnc4[nH]c(=O)cnc34)cc2F)n(-c2ccccc2)n1`, the nucleolar normality score reads like this: (1 µM) inactive: 1; (10 µM) inactive: 1.04.

Turning to `CC(C)(O)CNc1nc(Nc2ccnc(C(F)(F)F)c2)nc(-c2cccc(C(F)(F)F)n2)n1` [Enasidenib (AG-221)], the nucleolar normality score by setting is: (1 µM) inactive: 0.933; (10 µM) inactive: 1.08.

Take `Cc1cc(Nc2ncc(Cl)c(Nc3ccccc3S(=O)(=O)C(C)C)n2)c(OC(C)C)cc1C1CCNCC1` [Ceritinib (LDK378)]: the nucleolar normality score (1 µM) is inactive: 1.07 and the nucleolar normality score (10 µM) was active: 0.553.

On to `CC(Cc1ccc(O)c(O)c1)C(C)Cc1ccc(O)c(O)c1` (stereo unspecified) [Nordihydroguaiaretic acid (NDGA)], for which the nucleolar normality score runs as follows: (1 µM) inactive: 1.08; (10 µM) inactive: 0.926.

Take `C[C@@H](Oc1cc(-c2cnn(C3CCNCC3)c2)cnc1N)c1c(Cl)ccc(F)c1Cl`: the nucleolar normality score was active: 0.795 (1 µM) and active: 0.699 (10 µM).

Regarding `COc1cc(-c2cc(-c3ccc(N4CCNCC4)cc3)cnc2C)cc(OC)c1OC`, the nucleolar normality score (1 µM) is inactive: 0.912 and the nucleolar normality score (10 µM) was inactive: 0.972.

As to `Nc1ccccc1NC(=O)c1ccc(CNc2nccc(-c3cccnc3)n2)cc1` [Mocetinostat (MGCD0103)], the nucleolar normality score runs as follows: (1 µM) inactive: 0.955; (10 µM) inactive: 0.971.

Turning to `Cn1sc(=O)n(Cc2ccccc2)c1=O`, the nucleolar normality score runs as follows: (1 µM) inactive: 1.02; (10 µM) inactive: 0.86.

For `Nc1ncnc2c1ncn2[C@@H]1O[C@H](CO)C[C@H]1O` [Cordycepin], the nucleolar normality score was inactive: 1.01 (1 µM) and inactive: 0.996 (10 µM).

With `CC(=O)O[C@]1(C(C)=O)CC[C@H]2[C@@H]3C=C(C)C4=CC(=O)CC[C@]4(C)[C@H]3CC[C@@]21C` [Megestrol Acetate], the nucleolar normality score was inactive: 1.01 (1 µM) and inactive: 1.11 (10 µM).

As to `CN(C)C(=O)c1cc2cnc(Nc3ccc(N4CCNCC4)cn3)nc2n1C1CCCC1` [Ribociclib (LEE011)], the nucleolar normality score reads like this: (1 µM) inactive: 1; (10 µM) inactive: 1.03.

Consider `Cc1c(C)c2c(c(C)c1O)CCC(C)(CCCC(C)CCCC(C)CCCC(C)C)O2` (stereo unspecified) [Vitamin E], for which the nucleolar normality score is inactive: 1.05 (1 µM) and inactive: 1.08 (10 µM).

On to `Oc1cc(O)cc(/C=C/c2ccc(O)c(O)c2)c1` [Piceatannol], for which the nucleolar normality score runs as follows: (1 µM) inactive: 1; (10 µM) inactive: 0.897.

`CC[C@@]1(O)C(=O)OCc2c1cc1n(c2=O)Cc2cc3c(CN(C)C)c(O)ccc3nc2-1` [Topotecan HCl]: the nucleolar normality score is, setting by setting: (1 µM) inactive: 1.03; (10 µM) inactive: 1.05.

In the case of `Cc1cc(Nc2cc(CN3CCOCC3)c3nc(C)c(Cc4ccc(Cl)cc4F)n3n2)n[nH]1`, the nucleolar normality score was inactive: 1.02 (1 µM) and inactive: 1.07 (10 µM).

Turning to `COc1cc2ncnc(Nc3ccc(O)c(Br)c3)c2cc1OC`, the nucleolar normality score was inactive: 1.03 (1 µM) and inactive: 0.868 (10 µM).

With `O=C(O)c1ccc(O)c2ncccc12`, the nucleolar normality score is, setting by setting: (1 µM) inactive: 0.973; (10 µM) inactive: 1.07.

Turning to `O=C(c1ccc(Cl)cc1Cl)n1nnc2ccccc21`, the nucleolar normality score is, setting by setting: (1 µM) inactive: 1.03; (10 µM) inactive: 1.

As to `CO[C@H]1/C=C\C=C(/C)C(=O)NC2=CC(=O)C(NCCN(C)C)=C(C[C@@H](C)C[C@H](OC)[C@H](O)[C@@H](C)/C=C(\C)[C@@H]1OC(N)=O)C2=O` [Alvespimycin (17-DMAG) HCl], the nucleolar normality score is active: 0.402 (1 µM) and active: 0.326 (10 µM).

For `O=C(/C=C/c1ccc(O)cc1)CC(=O)/C=C/c1ccc(O)cc1` [Bisdemethoxycurcumin (BDMC)], the nucleolar normality score is inactive: 0.992 (1 µM) and active: 0.809 (10 µM).

Take `COc1cc2c(Oc3ccc(NC(=O)C4(C(=O)Nc5ccc(F)cc5)CC4)cc3F)ccnc2cc1OCCCN1CCOCC1`: the nucleolar normality score (1 µM) is inactive: 1.01 and the nucleolar normality score (10 µM) was inactive: 1.04.

Consider `COc1cc(N2CCC(N(C)C)CC2)ccc1Nc1ncc(Cl)c(Nc2ccccc2P(C)(C)=O)n1`, for which the nucleolar normality score runs as follows: (1 µM) active: 0.692; (10 µM) active: 0.65.

With `C#Cc1cccc(Nc2ncnc3cc(OCCOC)c(OCCOC)cc23)c1` [Erlotinib], the nucleolar normality score is, setting by setting: (1 µM) inactive: 1.06; (10 µM) inactive: 1.04.

As for `NC(=O)c1cnc(N[C@@H]2CCCC[C@@H]2N)nc1Nc1cccc(-n2nccn2)c1`, the nucleolar normality score reads like this: (1 µM) inactive: 0.95; (10 µM) inactive: 0.963.

In the case of `Cc1ccc(-c2nn(C(C)(C)C)c3ncnc(N)c23)cc1`, the nucleolar normality score runs as follows: (1 µM) inactive: 0.968; (10 µM) active: 0.816.

As for `CC/C(=C(\c1ccc(O)cc1)c1ccc(OCCN(C)C)cc1)c1ccccc1` [4-Hydroxytamoxifen], the nucleolar normality score (1 µM) is inactive: 0.992 and the nucleolar normality score (10 µM) is inactive: 1.04.

Regarding `Cc1c(C(=O)C=Cc2ccccc2)[n+](=O)c2ccccc2n1[O-]` [Quinocetone], the nucleolar normality score by setting is: (1 µM) inactive: 1.01; (10 µM) inactive: 1.09.

Consider `CC1(C)O[C@H]2CC(=O)OC[C@]23[C@H]2CC[C@@]4(C)[C@H](c5ccoc5)OC(=O)[C@H]5O[C@]54[C@]2(C)C(=O)C[C@@H]13` [Limonin], for which the nucleolar normality score is, setting by setting: (1 µM) inactive: 0.965; (10 µM) inactive: 0.882.

For `Cc1cc(C)c(CNC(=O)c2cc(-c3ccc(CN4CCOCC4)cc3)cc3c2cnn3C2CCCC2)c(=O)[nH]1`, the nucleolar normality score by setting is: (1 µM) inactive: 1.03; (10 µM) inactive: 1.03.

For the compound `NC(=O)c1cccc(-c2cc(Nc3ccc(OC(F)(F)F)cc3)ncn2)c1`, the nucleolar normality score was inactive: 1.08 (1 µM) and inactive: 0.946 (10 µM).
